How the values were obtained:
[1] = target: Optineurin (human) (UniProt Q96CV9); test: dynamic light scattering
[2] = target: Optineurin (human) (UniProt Q96CV9); test: SEC

- stoichiometry N [1]: 6
- stoichiometry N [2]: 6
Substance: Optineurin (a stretch of the chain, letters omitted) (natural protein; other documents disagree on this pair)

Reference: article PMC9972007
